From ChEMBL document CHEMBL4888484, “Replenishing the malaria drug discovery pipeline: Screening and hit evaluation of the MMV Hit Generation Library 1 (HGL1) against asexual blood stage Plasmodium falciparum ,using a nano luciferase reporter read-out” (2022)
The campaign covered roughly 150,000 compounds. About 540 (0.36%) showed an effect of 50% or more. The list shows a part of the results.

System: Plasmodium falciparum
Assay: Primary screen in NF54 nanoGlo assay, in single point, at 2uM, 72h; a lower Z score goes with more inhibition
Type: functional, Erythrocyte
Settings: timepoint 72 hour

SMILES	% Inhibition [%]	Z score
C[C@H](OCn1cc(NCCc2ccccc2)c(=O)[nH]c1=O)c1ccccc1	2	-0.35
COCCc1nc2c(c(N3CCN(c4ccccn4)CC3)n1)CCOCC2	-19	1.82
CC(C)C[C@H]1CN(C)CCN1C(=O)c1ncc[nH]1	-2	0.16
COc1ccccc1CCC(=O)N1CCC[C@H](c2[nH]ccc2C(N)=O)C1	-1	0.14
Nc1nc(CCC(=O)NCCc2ccc(S(N)(=O)=O)cc2)cs1	-26	2.8
COc1ccc(CN2CCC(O)(CO)CC2)cc1Cn1cccn1	4	-0.82
Cc1oc(-c2ccccc2)nc1CNS(=O)(=O)c1ccc(Cl)cc1	-1	0.08
COc1ccc(C=C(C)c2cnccn2)cc1C	-10	1.38
CCOCCCN1C(=O)c2cc3ccc(OC)cc3n2C[C@@]1(C)C(=O)NC1CCCCCCC1	7	-1.14
O=S(=O)(c1ccc(N2CCCCC2)nc1)N1CCOCC1	-15	2.83
NS(=O)(=O)c1ccc(CCNC(=O)c2ccc(-n3cnnc3)nc2)cc1	-10	0.95
COCCn1nc2n(c1=O)CCN(C(=O)CC1=CCCCC1)CC2	-11	1.69
CCCCOc1ccc([C@@](C)(C#N)CC#N)cc1	-5	0.9
O=c1nc(NCc2ccco2)ccn1-c1nc(-c2ccccc2)sc1-c1ccccc1	-29	3.43
O=C(NCC1CCN(S(=O)(=O)Cc2ccc(F)cc2F)CC1)[C@@H]1CCCO1	-27	2.35
O=C(Cn1cccn1)NCc1ccc2c(c1)OCO2	0	-0.05
Cc1cc(NC(=O)C2CC(=O)NC(C)C2)cc(C)c1Cl (stereo not given)	-23	2.04
CC(NCC1CCCn2cc(C(C)(C)C)nc21)C(=O)N1CCOCC1 (stereo not given)	-11	1.35
CCCNC(=O)NCCn1nnc2cc(S(=O)(=O)N3CCCC3)ccc21	27	-3.06
CCc1ccccc1-n1nc(-c2ccc(C)c(C)c2)cc1-c1ccc(C)c(C)c1	28	-3.22
C#CC[C@H](NC(=O)c1cc(C)cc(C)c1Br)C(N)=O	-8	0.74
Cc1cc(NCc2noc(-c3ccsc3)n2)ccc1C(N)=O	34	-4.61
C[C@@H](c1cccnc1)N(Cc1cnn2ccccc12)CC1CCOCC1	-8	1.05
CCn1cc(C(=O)NCc2cc3c(nc2OC)CN(C2CCCC2)C3=O)cn1	-10	1.8
C[C@](O)(CNC(=O)N1CCN(S(C)(=O)=O)C1=O)c1cc2ccccc2s1	-26	3.27
C[C@H](CCO)Nc1ccc(Br)cc1C#N	-12	1.65
COc1ccccc1C1CNCCN1C(=O)C1COc2ccccc2O1 (stereo not given)	6	-0.77
Nc1c(N2CCCC2)cccc1N1CCCC1	-6	1.09

SMILES	% Inhibition [%]	Z score
COCCc1ccc2oc(NCc3csc(C)n3)nc2c1	-9	0.85
c1nnsc1CN1CCCc2n[nH]cc21	9	-1.78
O=C(c1ccnc(N2CC[C@H](Cc3ccc(CO)cc3)C2)c1)N1CCOCC1	7	-0.83
OCC(CNc1ccnc(C(F)(F)F)c1)C1CCOC1 (stereo not given)	-12	1.49
O=C1NCCCn2nc(C3CCN(S(=O)(=O)c4ccc5c(c4)CCC5)CC3)cc21	-8	1.58
Cc1cc(C(=O)N2C3CCC2CC(S(=O)(=O)c2ccccc2)C3)c(C)o1 (stereo not given)	-5	0.63
CCCN1CCN(Cc2nn(C)c(=O)[nH]2)c2cc(F)ccc21	9	-1.19
Cc1noc(C)c1CN(C)CCCN1C(=O)NC(C)(C)C1=O	-1	0.15
COc1ccc(COCC(=O)NC2CCOCC2N2CCCC2)cc1 (stereo not given)	-8	1.56
Cc1cnn(CCC(=O)Nc2ccc(OC[C@H]3CCCCO3)cc2)c1	-8	1.03
CCC(NC(C)c1ccc(-n2cnnn2)cc1)c1c(C)nn(C)c1C (stereo not given)	-10	0.97
C[C@@H](C(=O)OCc1cccc2cccnc12)N1CCOCC1	-4	0.63
Cn1ncc2cc(-c3ccc(C(=O)NCCOCCO)cc3)ccc21	12	-1.62
O=C(C1CCC1)N1CC[C@]23C(=O)N(Cc4cn(nn4)CCCOc4cccc(c4)[C@H]12)c1ccccc13	-8	1.53
CCNC(=O)c1cccnc1N(C)CCn1ccnc1	-12	1.23
O=C(c1ccco1)N1CCC[C@H]1c1ccc2c(c1)OCCCO2	-7	1.07
CC(C(=O)NCCC1=CCCCC1)N1CCOC(c2nccs2)C1 (stereo not given)	7	-0.83
CCOc1ccc2nc(NC(=O)Cc3csc(NC(=O)c4ccc(OC)c(OC)c4)n3)sc2c1	-23	3.02
COc1cc(OC)c(CN2C[C@H](O)[C@@H](N3CCCC3)C2)cc1Cl	-2	0.3
O=C(Cc1c(F)cccc1Cl)N1CC[C@@H]2OCc3cnnn3[C@H]2C1	2	-0.29
CN(C)C(=O)C(C)(C)N[C@@H]1C=CCCC1	-8	1.2
O=C(COc1cccc2c1N=S=N2)Nc1ccc(F)cc1	5	-0.82
CC(C)N1C(=O)NC2(CCN(C(C(N)=O)c3ccc(F)cc3)C2)C1=O (stereo not given)	-5	0.52
Cc1cc(C)n([C@@H](C)C(=O)N(CCC#N)c2ccccc2)n1	-12	1.73
CCc1sc(=O)[nH]c1-c1ccccc1	-19	2.1
COc1ccc(C(=O)NC[C@H]2CCCN2Cc2ccccc2)nn1	-3	0.43
Cc1cccc(O)c1C(=O)N[C@@]1(c2ccc(S(C)(=O)=O)cc2)CCOC1	-1	0.13
